Reference: PubChem BioAssay AID1159614 (National Center for Advancing Translational Sciences (NCATS), 2016)
In all, about 45,000 compounds went through this assay and about 65 (0.1%) were called active. The call rests on the fitted dose curve; in most records, active means well fitted activation curve with a large enough effect; inconclusive means small, poorly fitted or top-dose-only effect; inactive means no such curve, though single readings can be large or run the other way. Some of the results follow.

Target: Galactocerebrosidase (Homo sapiens) (UniProt P54803)
Test: A Novel Cell-Based Assay to Identify Small Molecules for B -Galactocerebrosidase; further: 0% is about no effect; nearly all actives have a fitted effect of over 65% in size
Conditions: 145M-Twi-hGALC-G270D cells (Twitcher mouse brain line with human GALC G270D), HMU-beta-Gal fluorescence, 48 h; series mostly up to 57.5 µM; activation: at the top concentration
Outline: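 Fluorogenic HMU-b-Gal hydrolysis (0.1 mM final, pH 5.2 citrate-phosphate with 1 mg/mL sodium taurocholate; carbonate stop buffer) measures mutant GALC activity after compound treatment of live 145M-Twi Twitcher brain cells stably carrying human GALC-G270D, with wild-type GALC line alongside; activation sought.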

UniProt P54803, sequence (P54803 whole entry, looked up): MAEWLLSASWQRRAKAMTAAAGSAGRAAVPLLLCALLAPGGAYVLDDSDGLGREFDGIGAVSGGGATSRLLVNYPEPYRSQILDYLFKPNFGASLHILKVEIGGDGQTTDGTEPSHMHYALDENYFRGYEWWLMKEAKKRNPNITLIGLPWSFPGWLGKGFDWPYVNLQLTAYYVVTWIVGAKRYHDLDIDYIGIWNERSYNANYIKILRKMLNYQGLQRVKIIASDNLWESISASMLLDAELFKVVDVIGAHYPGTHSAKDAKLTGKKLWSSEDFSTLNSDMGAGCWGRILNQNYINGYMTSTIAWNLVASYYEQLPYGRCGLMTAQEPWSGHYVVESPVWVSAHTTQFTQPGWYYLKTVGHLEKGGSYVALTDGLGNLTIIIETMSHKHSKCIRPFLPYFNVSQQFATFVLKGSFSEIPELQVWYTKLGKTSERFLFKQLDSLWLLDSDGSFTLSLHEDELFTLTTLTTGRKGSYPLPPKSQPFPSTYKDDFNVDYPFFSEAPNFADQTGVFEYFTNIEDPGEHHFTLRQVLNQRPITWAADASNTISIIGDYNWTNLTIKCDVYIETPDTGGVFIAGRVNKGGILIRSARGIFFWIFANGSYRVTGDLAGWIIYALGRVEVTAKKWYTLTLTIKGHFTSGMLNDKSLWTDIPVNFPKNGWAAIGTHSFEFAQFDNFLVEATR

activation, inactive:
CCC(=O)N1CCc2cc(Br)cc(S(=O)(=O)N3CCCC(C(=O)Nc4cccc(Cl)c4C)C3)c21 (configuration not stated) 15.3%
CCCCNC(=O)CCn1c(=O)c2ccccc2n(Cc2ccccc2C#N)c1=O -10.4%
O=C(O)CCc1nc2ccccc2[nH]1 -10%
CCc1ccccc1NC(=O)c1ccc2nc(CCc3ccccc3)oc2c1 -11.4%
Cc1ccc(C(=O)COC(=O)C(CC(C)C)NC(=O)C2CCC(C)CC2)cc1 (configuration not stated) -6.56%
Cc1ccccc1-c1nc(CS(=O)(=O)CC(=O)N2CCN(c3ccccc3)CC2)c(C)o1 -5.58%
Cn1c(=O)cc(OCCCC(=O)Nc2ccc(F)cc2)c2ccccc21 -14.7%
CCCN(CCC)CCCNC(=O)C1CCCN(S(=O)(=O)c2cccc3nsnc23)C1 (configuration not stated) -7.3%
CCOc1ccc(NS(=O)(=O)c2cc(Br)cc3c2N(C(=O)C2CC2)CC3)cc1 -7.4%
CCOc1ccc(CCNC(=O)Cn2nnc(-c3ccccc3)n2)cc1OCC -16.3%
CC(=O)Nc1cccc(C(=O)NCc2ccc3c(c2)CCN3C(=O)c2ccccc2)c1 -8.19%
CCCCNC(=O)CSc1nc2nc(C)c(Cc3ccccc3C)c(C)n2n1 -7.87%
COc1cc(NS(=O)(=O)c2ccc(NC(=O)c3ccccc3C(=O)O)cc2)nc(OC)n1 -5.02%
COc1cc(OC)c(NC(=O)NC(C)c2c(-n3cccc3)sc(C)c2C)cc1Cl (configuration not stated) 2.42%
Cc1ccc2cccc(NC(=O)c3ccc(-c4cccc([N+](=O)[O-])c4)o3)c2n1 5.03%
CCC1CCc2nc3sc(C(=O)Nc4ccc(F)cc4F)c(N)c3cc2C1 (configuration not stated) -17.6%
CCOC(=O)c1cc(C)n(CC2CCC(C(=O)Nc3ccc(Cl)cc3)CC2)c1C (configuration not stated) -22.4%
COc1ccc(C(=O)N2CC(=O)Nc3ccc(F)cc3C2c2ccc(F)cc2)c(OC)c1 (configuration not stated) -9.21%
CCOC(=O)c1sc(NC(=O)/C=C/c2ccc(OCC)cc2)c(C(=O)OCC)c1C 27.3%
COc1cccc(C(=O)Nc2cc(-c3ccccc3)no2)c1 -18.2%
CC(C)CC(=O)Nc1ccc(C(=O)OCc2cc(=O)n3nc(C(C)C)sc3n2)cc1 -5.65%
COc1ccc(/C=C/c2nc(C#N)c(NCCc3ccc(OC)c(OC)c3)o2)cc1OC -9.43%
COc1ccc(-n2c(=O)c3ccc(C(=O)NCc4ccc(C)cc4)cc3n(CC(=O)Nc3ccc(F)cc3)c2=O)cc1 -8.53%
CC(C)CC(NS(=O)(=O)c1ccc2c(c1)oc(=O)n2C)C(=O)NCCc1ccc(Cl)cc1 (configuration not stated) -17.2%
COC(=O)c1ccc(NC(=O)c2cc(S(=O)(=O)N3CCc4ccccc43)cn2C)cc1 -10.2%
O=C(CSc1cn(CCNC(=O)c2c(F)cccc2F)c2ccccc12)Nc1ccc2c(c1)OCCO2 -0.167%
Cc1ccc(NC(=O)c2oc3ccccc3c2NC(=O)c2cc3ccccc3o2)cc1 -7.65%
O=C(OCc1cc(=O)n2nc(C3CC3)sc2n1)c1ccc(F)cc1 -11.6%
CCOc1ccccc1NC(=O)Cn1cnc2onc(-c3ccc(F)cc3)c2c1=O -21.2%
Cc1cc(C)cc(NS(=O)(=O)c2ccc3[nH]cc(C(=O)N4CCCC4)c(=O)c3c2)c1 -8.02%
O=C(Nc1cccc(C(=O)N2CCN(c3ccc(Cl)cc3)CC2)c1)c1nsc2ccccc12 -11.1%
CC1=C(C(N)=O)C(c2cccc(Br)c2)n2nc(SCc3ccccc3)nc2N1 (configuration not stated) -1.66%
CCCCc1nnc(SCc2cc(=O)c3cc(C(=O)OCC)ccc3[nH]2)n1C 6.53%
O=C(NCc1cccnc1)C1CCN(Cc2cc3ccccc3n2Cc2cccc(Cl)c2)CC1 -1.11%
O=C(Cc1ccccc1)Nc1sc2c(c1C(=O)Nc1ccc(Cl)cc1)CCCC2 2.8%
O=C(NCCc1csc(-c2cccc(F)c2)n1)c1cccs1 -19.2%
Brc1ccccc1-c1ccccc1 -10.7% [at 114 µM]
N#C/C(=C\c1ccc(Cl)cc1)c1nc2ccccc2[nH]1 21.1%
Cc1cccc(NC(=O)CSc2nc3c([nH]c4ccccc43)c(=O)n2C)c1C -11.2%
CN(C(=O)CSc1nc2c(c(=O)[nH]1)CCCC2)c1ccccc1 -10.6%
CCOc1ccc(S(=O)(=O)N2CCN(c3c(C)cccc3C)CC2)c2ccccc12 -11.7%
COc1ccc(-c2nc(SCC(=O)Nc3ccc4c(c3)OCO4)c(-c3ccc(OC)cc3)[nH]2)cc1 -18.6%
CCOc1ccccc1NC(=O)C1CCN(S(=O)(=O)c2ccccc2)CC1 -18.8%
COc1ccccc1CNC(=O)Cn1ncc2c3ccccc3n(Cc3ccccc3C)c2c1=O -7.42%
CC(NC(=O)Nc1ccccc1C(F)(F)F)c1c(-n2cccc2)sc2c1CCCC2 (configuration not stated) -16.5%
COc1ccccc1NC(=O)CSc1oc(-c2cccs2)nc1S(=O)(=O)c1ccc(Br)cc1 -18.9%
CCOC(=O)c1ccc(NS(=O)(=O)c2ccc(Br)s2)cc1 -9.29%
Cc1cc(C)cc(OC(=O)c2snnc2C)c1 -10.2%
O=C1Nc2ccc(S(=O)(=O)Nc3ccccc3O)c3cccc1c23 -14.6%
COc1cc(Cl)c(C)cc1NC(=O)CSc1ncc(S(=O)(=O)c2ccc(C(C)(C)C)cc2)c(=O)[nH]1 -17.8%
Cn1c2ccccc2c2c(C(=O)N3CCN(c4ccc(F)cc4)CC3)cn(C3CCCCC3)c(=O)c21 -19.4%
COc1ccc(NC(=O)CSc2nnc(-c3cccs3)o2)cc1 -22.7%
CCOc1ccccc1Nc1cc(-c2ccccc2)nc(C)n1 -10.6%
COc1cc(C(=O)Nc2ccc3oc(-c4ccccc4)nc3c2)cc(OC)c1OC -24.6%
COc1cc(NC(=O)Cn2ncc3c([nH]c4ccc(C)cc43)c2=O)cc(OC)c1OC 0.853%
CC(C)(Oc1ccc(C2CC2(Cl)Cl)cc1)C(=O)O (configuration not stated) -7.33%
COc1ccc(-c2noc(CSCC(=O)Nc3cccc(C(F)(F)F)c3)n2)cc1OC -13.6%
CCOc1ccc(C2Nc3ccccc3-c3nnc(SCc4ccccc4)nc3O2)cc1OC (configuration not stated) -5.9%
Cc1ccc(S(=O)(=O)CC(=O)Nc2sc3c(c2C#N)CCCCC3)cc1 -6.03%
CC(C)CCN(Cc1ccco1)C(=O)c1cc2c(Cl)nc3ccccc3c2s1 -13.2%
CCc1cccc(NC(=O)c2ccc(CN3C(=O)C(C)=C(c4ccc(OC)cc4)S3(=O)=O)cc2)c1 2.81%
CCC(=O)N1CCc2cc(Br)cc(S(=O)(=O)CCC(=O)NCCc3ccc(Cl)cc3)c21 -11.3%
CCOc1ccccc1NC(=O)Nc1nnc(N2CCCCCC2)s1 -8.35%
Cc1ccccc1CNC(=O)C1CCCN(S(=O)(=O)N(C)c2ccc(F)cc2)C1 (configuration not stated) -20.3%
CCCOc1ccc(-c2nn(-c3ccccc3)cc2C2NC(=O)NC(C)=C2C(=O)OC)cc1C (configuration not stated) -30.5%
COc1ccccc1C(=O)Nc1nc(-c2ccccc2)ns1 -18.8%
COc1ccccc1C(=O)NCCn1cc(SCc2ccccc2Cl)c2ccccc21 -9.61%
COC(=O)c1ccccc1NC(=O)Cn1nnc2sc(-c3ccccc3)cc2c1=O -16.8%
CCc1ccc(-c2nn(CC(=O)NC3CCCC3)c3c2cnc2ccc(F)cc23)cc1 -14.8%
COc1ccc(-c2nc(-c3ccccc3)c(-c3ccc(O)cc3)[nH]2)cc1 -9.65%
COc1ccccc1CNS(=O)(=O)c1cc2c3c(c1)CCN3C(=O)CC2 -2.09%
CCOc1ccccc1NC(=O)NCCn1c(=O)oc2ccc(C)cc21 -21.6%
Cc1ccc2sc(N3CCN(C(=O)CCS(=O)(=O)c4ccc(F)cc4)CC3)nc2c1C -38.6%
COc1ccc(OC)c(CNC(=O)CCn2c(=O)c3cccn3c3ccc(F)cc32)c1 -3.76%
COc1ccc(Cn2c(C(=O)O)c(CNC3CCCCCC3)c3ccc(OC)cc32)cc1 0.832%
O=C(/C=C/c1ccc(F)cc1)Nc1nc2n(n1)C(c1ccc(Cl)cc1)C=C(c1ccccc1)N2 (configuration not stated) -15.9%
Cc1ccccc1-c1nc(CS(=O)(=O)CC(=O)NCc2cccc(Cl)c2)c(C)o1 1.81%
Cc1ccc(N2CC(C(=O)Nc3ccc(Br)cc3)CC2=O)cc1 (configuration not stated) -19.9%
CCC1=Nc2cc(C(=O)NC3CCCC3)ccc2Sc2ccc(Br)cc21 -13.3%
Cc1noc(/C=C/c2ccco2)c1S(=O)(=O)N1CCC(C(=O)Nc2ccc(F)c(Cl)c2)CC1 -31.8%
COc1ccc(-n2ncc3c(NCCC4=CCCCC4)ncnc32)cc1 -23.5%
COc1ccc(C(=O)n2nc(-c3ccco3)nc2NCc2cccs2)cc1 -6.91%
C=Cc1ccc(CN2C(=O)N(c3cccc(Cl)c3)S(=O)(=O)c3ccccc32)cc1 -7.18%
Cc1ccc2c(=O)c(C(=O)c3cccc(Cl)c3)cn(CC(=O)NCc3ccc(F)cc3)c2n1 -8.79%
CCN(CC)S(=O)(=O)c1ccc2c(c1)N(CC(=O)N1CCN(c3ccccc3F)CC1)C(=O)CO2 -7.59%
COc1cc(Nc2nc3ccccc3c3nnc(C)n23)cc(OC)c1 -1%
CCCCN1CCCc2cc(CN(CCCN3CCOCC3)C(=O)Nc3ccc(OCC)cc3)ccc21 -11.8%
O=C(NCc1cccc(Cl)c1)C(=O)Nc1ccc2nc3n(c(=O)c2c1)CCCCC3 -17.3%
COc1cccc(CN2CCc3nc(SCC(=O)Nc4ccccc4)[nH]c(=O)c3C2)c1 -3.87%
COc1ccc(C)cc1Nc1c2c(nc3nc(-c4cccs4)nn13)CCCC2 -10.6%
Cc1ccccc1NS(=O)(=O)c1nnc(NC(=O)c2ccccc2C)s1 -17%
O=S(=O)(NCCS(=O)(=O)N1CCN(c2ccccc2F)CC1)c1ccc(Cl)cc1 -19%
Cc1ccc(NC(=O)N2CCc3cc(S(=O)(=O)N4CCC(C)CC4)ccc32)cc1C -2.55%
CC1Cc2cc(S(=O)(=O)NCc3ccccc3Cl)ccc2N1C(=O)C1CCC1 (configuration not stated) -10.6%
CCOC(=O)c1ccc(Nc2ncnc3c2cnn3-c2cccc(Cl)c2)cc1 -10%
CCN(C(=O)c1cc2c(s1)-c1ccccc1OC2)c1cc(Cl)ccc1OC -8.66%
O=C(NC1CCN(Cc2ccccc2)CC1)c1ccc(Cn2c(=O)c3ccccc3n(Cc3ccccc3)c2=O)cc1 1.66%
